Results from the BET-seq Pho4 binding data (Le et al. 2018).
The other results are listed elsewhere or left out. These are noisy estimates, calculated here from bound and input reads.

target: T1, Pho4 (S. cerevisiae) (UniProt P07270); test: relative binding free energy (BET-seq); higher = weaker binding; conditions: reference: library average
T1 sequence: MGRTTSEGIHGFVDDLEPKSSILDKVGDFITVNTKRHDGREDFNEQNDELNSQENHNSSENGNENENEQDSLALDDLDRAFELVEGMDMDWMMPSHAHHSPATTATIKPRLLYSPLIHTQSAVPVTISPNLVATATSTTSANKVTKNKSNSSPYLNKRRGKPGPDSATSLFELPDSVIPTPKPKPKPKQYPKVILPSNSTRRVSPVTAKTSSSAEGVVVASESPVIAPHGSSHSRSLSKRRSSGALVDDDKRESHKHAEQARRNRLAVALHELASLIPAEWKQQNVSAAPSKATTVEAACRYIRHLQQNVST

Relative binding free energy, 0.06 kcal/mol:
CGTGACACGTGTTTTT
GTAATCACGTGGGTCA
CTGATCACGTGGTATG
ATATGCACGTGGATAT
GTATCCACGTGGCTGT
AGGTGCACGTGGAACT

Relative binding free energy, 0.11 kcal/mol:
GAAGGCACGTGGAAAG
TGAGTCACGTGGGAAG
TTGCTCACGTGGGCGG
AGTGACACGTGTACTT
TTTCACACGTGTGTCG
TTATACACGTGTATTG
ATAGTCACGTGTTTAG
GTTAACACGTGTGAGG

Relative binding free energy, 0.25 kcal/mol:
CTGGTCACGTGAGTGG
CATTACACGTGTAAGG
GGCTTCACGTGTGTGC

Relative binding free energy, 0 kcal/mol:
AAGTGCACGTGCGGTT
GAGTGCACGTGGGATG
GTAGTCACGTGGGTTA
TGTTCCACGTGTCGGT

Relative binding free energy, -0.19 kcal/mol:
TGTTGCACGTGCGCGT
AGGTGCACGTGGGTCG

Relative binding free energy, -0.18 kcal/mol:
TGGGACACGTGGCTAG
ACAGGCACGTGTGTGT
TCAGTCACGTGGGTCG

Relative binding free energy, 0.19 kcal/mol:
GTTGACACGTGATGGA
TTAGTCACGTGGTAAG

Relative binding free energy, -0.16 kcal/mol:
TCGGCCACGTGCGGGT
ACGAGCACGTGTAGGG

Relative binding free energy, 0.07 kcal/mol:
GGTGACACGTGTAGTG
TCGTGCACGTGATGTG
ATTTCCACGTGTGGAT
TTGCTCACGTGTGTGG

Relative binding free energy, -0.2 kcal/mol:
TGAGGCACGTGGGTGC

Relative binding free energy, 0.29 kcal/mol:
GACGTCACGTGTTGTA

Relative binding free energy, 0.04 kcal/mol:
TGGTCCACGTGCGAGT
GGTGTCACGTGCAGAT
AATGTCACGTGTGGTC
GGGTGCACGTGTGTAA
TGAGGCACGTGAGTCT
AATGTCACGTGGATAG
CAGGGCACGTGGAAGG
GTTGTCACGTGGGCAG

Relative binding free energy, -0.15 kcal/mol:
TTTGGCACGTGCTATG
TGGTCCACGTGGGTGA
TGTGTCACGTGCGCGT

Relative binding free energy, -0.14 kcal/mol:
AGGAACACGTGGGGGA
TGAAGCACGTGGTTGG

Relative binding free energy, 0.03 kcal/mol:
TTCGTCACGTGGTTAG
TACGGCACGTGATTTG
CAATACACGTGGGTTT

Relative binding free energy, 0.26 kcal/mol:
ACGTTCACGTGTGATT

Relative binding free energy, 0.1 kcal/mol:
TGATACACGTGCGTTT
GTAGACACGTGTGGCG
TGGGTCACGTGTTAGG
ATCGTCACGTGAGGGC
GTGTACACGTGTCGCG

Relative binding free energy, 0.09 kcal/mol:
TTGTACACGTGGTTCG
TTTATCACGTGGGCTT
AGAGACACGTGTAGGA
AGATACACGTGTGGGA
TGTTGCACGTGTAGTG
GGTTGCACGTGTGTCC
TGTCTCACGTGGGTCT

Relative binding free energy, -0.05 kcal/mol:
TGAGGCACGTGACGTA
ATATGCACGTGTGTCT
ACGTGCACGTGGTAGA
GGTGACACGTGCGGCG
TTGGCCACGTGTGTGA
GGTGTCACGTGGCAAG
ATTGGCACGTGAGCTA

Relative binding free energy, -0.17 kcal/mol:
ATAGGCACGTGTGCGT

Relative binding free energy, 0.05 kcal/mol:
GTGGGCACGTGTGTCG
GTGGTCACGTGCTTGG
GCTTGCACGTGTGGAT
GGTGGCACGTGTTCTA
AGTTACACGTGCGGTG
TCGGTCACGTGCGGGT

Relative binding free energy, 0.34 kcal/mol:
TAGAACACGTGAGTGA
GGTCTCACGTGATGGA

Relative binding free energy, -0.24 kcal/mol:
CGGGCCACGTGGTGGA

Relative binding free energy, 0.4 kcal/mol:
GAGTTCACGTGCGGTA
GTTTGCACGTGATGAC
TTGTTCACGTGAAGTC

Relative binding free energy, 0.32 kcal/mol:
TTAGTCACGTGAGGAA
GGCGACACGTGAAGGG

Relative binding free energy, -0.13 kcal/mol:
GGTGGCACGTGGTGAC
GTTGACACGTGGGGTA
TGGACCACGTGGCGTT
TTAGACACGTGGTTAA

Relative binding free energy, 0.13 kcal/mol:
GATGGCACGTGTGATC
TTTGTCACGTGTTTCA
TATCTCACGTGGGTGG

Relative binding free energy, 0.18 kcal/mol:
CTTGTCACGTGATAGG
TATTTCACGTGCGTAT
GGCTACACGTGTGGAG
GTAATCACGTGTTATA
CGTATCACGTGATAGG

Relative binding free energy, -0.02 kcal/mol:
TGGTGCACGTGGTCTT
TTGAGCACGTGATGGG
AGGTCCACGTGGTTTG
TTTGGCACGTGGAATG
ATGTGCACGTGTGGCG

Relative binding free energy, -0.12 kcal/mol:
GTGTGCACGTGGACAT
TGAGGCACGTGCGTGG
CTGGGCACGTGGAATG
TCAAGCACGTGGTCGG

Relative binding free energy, 0.35 kcal/mol:
TTGGACACGTGAATGT
GGGGTCACGTGACGGC
GGATTCACGTGATAGT

Relative binding free energy, -0.07 kcal/mol:
CTTAACACGTGGCGGG
ATATACACGTGTGTTC
GTCCACACGTGGGGTT

Relative binding free energy, 0.44 kcal/mol:
GAGGTCACGTGAAAGG
TGGTTCACGTGTGAAT

Relative binding free energy, 0.08 kcal/mol:
CTCGTCACGTGTGTGT
TGAGTCACGTGTTCTG
GGTTCCACGTGGTTGG
GGGTGCACGTGAGCCG
AAGGGCACGTGAGAGC
TGTGTCACGTGCGTCT

Relative binding free energy, -0.09 kcal/mol:
TGTGGCACGTGTTCTA
CTTAGCACGTGTTTGT
TTGGCCACGTGCTGTT
TTAGGCACGTGTGTGT
TGTAGCACGTGGTCAT
TGTACCACGTGTGGGT
CTGGGCACGTGCGGGT
AAGGACACGTGGTGTG

Relative binding free energy, 0.02 kcal/mol:
GACGGCACGTGTGTGC
GGATACACGTGGGGTT

Relative binding free energy, -0.01 kcal/mol:
TTGAGCACGTGTAATG
GTGTACACGTGGTCGC
TTAGACACGTGCAGGT
TGTAACACGTGTTTGC
TCTTGCACGTGGGGAT
ATGAACACGTGTTGTA
TTTAGCACGTGCATGA
TTAAACACGTGGAGGG
TTGGGCACGTGTGTAT

Relative binding free energy, 0.43 kcal/mol:
GGATTCACGTGAGTTT
GAATTCACGTGTTCTT

Relative binding free energy, 0.42 kcal/mol:
GTGGTCACGTGAGATG

Relative binding free energy, 0.39 kcal/mol:
ATAATCACGTGAGGTG
TGGTACACGTGAGGCT

Relative binding free energy, -0.27 kcal/mol:
GCTGGCACGTGGGCGA

Relative binding free energy, -0.1 kcal/mol:
ATAAGCACGTGGTAGT
AAAGGCACGTGTGTAA
GTGTGCACGTGCTGAA
TGGCACACGTGGTCGT
GTAGGCACGTGTGCGG
AACGGCACGTGTTGGG
GTGAGCACGTGGTGCT

Relative binding free energy, 0.28 kcal/mol:
TGGATCACGTGACGGA
TGGAACACGTGAAGAG
TGTTTCACGTGGTCTG

Relative binding free energy, 0.23 kcal/mol:
AATTGCACGTGATGCT
TTTTTCACGTGCGGGC

Relative binding free energy, 0.41 kcal/mol:
GTCTTCACGTGTATTT

Relative binding free energy, 0.12 kcal/mol:
TTGATCACGTGCGGTC
GTGGCCACGTGAGAGG
TATAACACGTGATGGT
TTGGTCACGTGTTGTA
GTTGTCACGTGGATGA

Relative binding free energy, 0.14 kcal/mol:
TTTTGCACGTGAGGCC
ATTTGCACGTGTTGGG

Relative binding free energy, -0.26 kcal/mol:
TGTACCACGTGGTCGG
AGTGGCACGTGTTGCA

Relative binding free energy, 0.16 kcal/mol:
CTTGACACGTGTGGTT
TGCCTCACGTGGAGGG

Relative binding free energy, 0.3 kcal/mol:
TAGTTCACGTGTAGCG
GAGGTCACGTGATAAT
TTATTCACGTGATGAA

Relative binding free energy, 0.36 kcal/mol:
GATCTCACGTGGAGTG

Relative binding free energy, 0.2 kcal/mol:
TGTTTCACGTGTATTA
AGAGTCACGTGATGGA
AATTTCACGTGATTTA
AATTTCACGTGGGCTG
CTTTGCACGTGACGTT
TCTATCACGTGTCGTG
GTTTGCACGTGAGGGT

Relative binding free energy, -0.06 kcal/mol:
AGGCGCACGTGTGGAA
GTGGCCACGTGTTTGT
GTGTGCACGTGCCGGA

Relative binding free energy, -0.21 kcal/mol:
ATTTGCACGTGGGGCT

Relative binding free energy, 0.15 kcal/mol:
TAGATCACGTGGAGTG
ACATTCACGTGTGGTA
GCAGTCACGTGTAGGG
GGAAGCACGTGAGGTA
CGTATCACGTGCTAGG

Relative binding free energy, 0.22 kcal/mol:
GTGGTCACGTGTGGAC
ATTTACACGTGGTAGC
TCGTTCACGTGGAGGA

Relative binding free energy, -0.03 kcal/mol:
ATTGACACGTGCTGGA
TGTTGCACGTGGAGAC
GGAATCACGTGTCGTG
GATGGCACGTGTTCGT
TGTACCACGTGATGTT
CGGGGCACGTGATATT

Relative binding free energy, 0.27 kcal/mol:
GGATTCACGTGCTAGG
TAGAACACGTGAGGGG
TTGGACACGTGATAGG
GTATTCACGTGCGGGT
TGGCACACGTGTGAAT

Relative binding free energy, 0.24 kcal/mol:
GAGGTCACGTGTGATG
GCTGGCACGTGAAGGA
AGGATCACGTGTTAAT
TTCATCACGTGTAGTC
TAATTCACGTGCTTGT

Relative binding free energy, -0.11 kcal/mol:
GAGGGCACGTGCTGAT
TTAACCACGTGTTAGG
TTGGGCACGTGGCGAT
ATGTACACGTGGCGAG

Relative binding free energy, 0.33 kcal/mol:
CAGTTCACGTGGATTT
GAGCTCACGTGGATTG

Relative binding free energy, 0.31 kcal/mol:
AGTTTCACGTGATTTT
GATCTCACGTGAAGGG
GGACTCACGTGTCGGG

Relative binding free energy, 0.21 kcal/mol:
GGTTACACGTGATGAT
ATTGACACGTGAATGT
GTGGGCACGTGAATCG

Relative binding free energy, 0.17 kcal/mol:
TTTTGCACGTGAGACT
GTTAGCACGTGTGCGC
CGTTGCACGTGAGGTT
ATTTCCACGTGATGGT
GGTCTCACGTGTTAGA
TTTGACACGTGTAAAT
TTCATCACGTGGTTGC
TATGTCACGTGGTTAA
